The supplement of paper PMC12632987
Whole data set: some 2,300 sequences, median “median log2 fold change of GCK-ALFA target abundance (FLAG IP / Myc IP barcode read proportion)” near 0.095, cut for the lowest 2% near -0.47. The list shows a part of the results.

B1: LC3A_28_917 (protein)
chain: MTPEEIIAAIRAAVDAAIAAGEDAHIEIEIGPNTTPEEARRIMEALEEEVARAAAAGLRVDITVDLDDVSQEVLDIVAERLERIEEKYPLASAIIALDEE
B2: LC3A_147_417 (protein)
chain: NTLKVTIDILGTLTDEEIQELVDALKAVGEKFGAKVEVKVEVEELPDGSRFVRIEITLTGVKEEDVEALKNALIDTVDEFEEKHKDKISASLISFEVIKT
B3: LC3A_127_219 (protein)
chain: MLEELLKLVREAARLADELVEDPSLDFEKALKEIEELLKEALKLAEEAGLPEEVIKDIKEALKLVKEARTADPEERKELLERASLLMDGVEIEIESLILK
B4: LC3A_free_46_2322 (protein)
chain: YKAEIDIYIDGVDKETAEKLVEELKKEFKEIAEKYGLKLEIKVKIEKNEDGTYFVEIEITLEGEDKEKLKEAVNEIIEKSEEIAEKYGASIVISYEIEEK
B5: LC3A_free_26_2157 (protein)
chain: EKFVDIAAIDEAEERLEELERLLREQGGETERLAQKAEEARELVRKETLESLEAAIELLREMEEEVREELELPEEVRERAERLLEEARRLVEEVVEIMKS
B6: LC3A_28_652 (protein)
chain: SAVDAALAAALAAARAARAAGEPAVITIRVPGDADDADIDRVLATLEEIAAILAPIPGSAIVVELDGDLADEHRDRIIDKAEELEARYPNVTVIIAEEER
B7: LC3A_28_1025 (protein)
chain: SAAEAAVAAARAEAEAQRAAGEDIFVTITVTADTTLEDARLIVEGIREIVEEHKDEKNISIIIDVERGVSQEVIDLLADGAEEIEKEYPNVNVIIALEEE
B8: LC3A_3_1369 (protein)
chain: MEEKVKEALEFLREAGKSEETIKAVEKALKALIEKGYEKAAEEFIKLLKELKDLSDEILLNFAEDVLEAVENEDLSEEELIEFIKEEARVARNEEEIEEL
B9: LC3A_28_829 (protein)
chain: SDIEARLAAFRAEVAAAVAAKESATFTVTITDKDTLEEVKTIMDAIREEAAKAADVPNQSIIIDLDGKISQEKLNLISEAADEIEEEYPNVNVIIALPED
B10: LC3A_28_950 (protein)
chain: MSIEENIEKALKEAKEAKEKNEPVVITLVLEDDPSEEAVEALIEAMEEIAELLKDIKGTTIIVDVSSKVKQEHIDAIADKGEEIEKKYPNINVIIALDED
B11: LC3A_3_1723 (protein)
chain: MEKIKAEALAVLKAQGASPETIKAAEELLKALEEKGFLEAAKTLLEELKKLKGVSSEDLLAALKDLLYKVTNEDLSEEEVIEEIKREFSVLKSAKEIEEL
B12: LC3A_3_1843 (protein)
chain: LDAAVEATLAELRAAGHSEATLAAVRETAELLKARGYDEALETFIALMRELAGLPSDLLLALAEDVKAYLETNDWSEAEVKAYIEAEARLYRNEAEIEEL
B13: LC3A_28_1215 (protein)
chain: SAIDEELEKAEKEMEEAKKKGEEALITIKIPATATVEDVKRAMERLEEIVEKVKDLPSISIIVDFEAGVSQEVIDAAAEGGERIEKKFPNVTVIIALDEE
B14: LC3A_3_1440 (protein)
chain: SEELLEEAREVLEKIGASEEAREAVLRLVERALEAGEEEGVRELIEVLKKAKKVKSEKLLEAAERALRRIEEEGVPVEEALREFIEEIRLLELEEEIEEL
B15: LC3A_28_1238 (protein)
chain: NPVEEQLERARAEVEEAVAAGEEALVELTVTKDTTQEDVDKIIEAMEEIAELAATLPALDIIINVERGVPQEHIDKLADAADEIEARYPNVTVIIALEEE
B16: LC3A_102_139 (protein)
chain: SLEEKIKKKIEELLKEFKKFLEKDKSLTEEEKKRALELVKEALEAAAKNTVTELQHGFVDIEAEDKLLEKLEELAKIGKEVAEKAKKLIEKLKKYIKELM
B17: LC3A_23_605 (protein)
chain: MYKVEVIVDFIDKPEEAEKKVEELLKKVEELLKKHKDIVKDYEIKVTREALPDGTTYVEVEITIIIDGTKEEAEEIRNELESIASETLPNGVISSEVEEL
B18: LC3A_free_39_2194 (protein)
chain: SEEETKKAKEELLKLAAEAGEEAKKLAEEIIELIGEELEKLKALLEALKKAKEEGVDILEVLKEALKLAKELKAQGKSKEEIFKAVLQLIEDAINLIPID
B19: LC3A_132_312 (protein)
chain: MEEKYAEIKARLDALLDEAAANIKDKAKVQALLKEIKALLEEAEKELTPEQVAELYDYVADRLDALSQQALAAGQEDVALDLDAASIEAASRSLEAEKKI

These binders were tested against MAP1LC3A, Q9H492 (assay: median log2 fold change of GCK-ALFA target abundance (FLAG IP / Myc IP barcode read proportion) (log2 ratio); each designed protein is fused to an ALFA-tag nanobody in HEK293 cells to bring the named protein to FLAG-tagged glucokinase (GCK); Myc marks an untargeted standard; higher = target protein stabilised (more abundant)). Conditions: target protein: 3xFLAG-MCP-GCK-ALFA reporter; HEK293 landing pad (RPLP).
How it was run: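 An ALFA-nanobody-fused binder library was recombined into HEK293 landing-pad cells and induced with 2 μg mL^−1 doxycycline. Cells were transfected with a plasmid expressing a FLAG-tagged target and a Myc-tagged standard. After 48 h, lysates underwent anti-FLAG and anti-Myc immunoprecipitation, and circular RNA barcodes were reverse transcribed, amplified and sequenced. Target abundance is the per-binder median log2 ratio of FLAG to Myc barcode read proportions. Barcodes needed ≥10^−7 proportion in both replicates, binders ≥3 barcodes per replicate, and a 10^−6 pseudocount was added; the two replicates were pooled.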

Binder	median log2 fold change
B1	0.181
B2	-0.315
B3	0.358
B4	0.337
B5	0.154
B6	0.0787
B7	-0.176
B8	0.123
B9	0.219
B10	0.204
B11	0.206
B12	0.466
B13	0.112
B14	0.267
B15	-0.0597
B16	0.262
B17	-0.868
B18	0.19
B19	0.361
